# Test results as given in the supplement of paper PMC9174493.
# The list shows a part of the results. Single values of this set are uncertain. Values with irradiation are relative to irradiated vehicle.
# System: A549-Dual
# Assay: ISRE reporter (Lucia luciferase) activity, viability-corrected, relative to vehicle (fold change vs vehicle); higher = more activation of STING-IRF / NF-kB immune response reporter
# Details: 3 µM; irradiation: none
row,Compound,ISRE reporter
1,C=CC(=O)Nc1cc(Nc2nccc(-c3cn(C)c4ccccc34)n2)c(OC)cc1N(C)CCN(C)C [Osimertinib (AZD9291)],1.71
2,CC1CC2C3CCC4=CC(=O)C=CC4(C)C3(F)C(O)CC2(C)C1(O)C(=O)COP(=O)([O-])[O-].[Na+].[Na+] (centres undefined) [Dexamethasone Sodium Phosphate],0.261
3,O=C(O)CCCN1CCC(OC(c2ccc(Cl)cc2)c2ccccn2)CC1.O=S(=O)(O)c1ccccc1 (centres undefined) [Bepotastine Besilate],1
4,CC(=O)OC(C)C(C)C(=O)OCC12C3CC4(C)C(=CCC5C6(C)CCC(OC7OC(C(=O)[O][Na])C(OC8OC(CO)C(O)C(O)C8O)C(O)C7OC7OCC(O)C(O)C7O)C(C)(CO)C6CCC54C)C1CC(C)(C)C(O3)C2O (centres undefined) [Sodium Aescinate],0.972
5,Nc1nc(CC(=O)Nc2ccc(CCNCC(O)c3ccccc3)cc2)cs1 (centres undefined) [Mirabegron],0.841
6,O=C1OC(OC(=O)c2cccnc2Nc2cccc(C(F)(F)F)c2)c2ccccc21 (centres undefined) [Talniflumate],0.788
7,CN1C(C(=O)Nc2ccccn2)=C(O)c2sccc2S1(=O)=O [Tenoxicam],1.23
8,CCC(=O)NS(=O)(=O)c1ccc(-c2c(-c3ccccc3)noc2C)cc1 [Parecoxib],0.965
9,CNCC(O)C(O)C(O)C(O)CO.Cc1c(Nc2ncccc2C(=O)O)cccc1C(F)(F)F [Flunixin Meglumin],0.904
10,Cc1cncc(CN2CCC(=C3c4ccc(Cl)cc4CCc4cccnc43)CC2)c1.O=C(O)/C=C/C(=O)O [Rupatadine Fumarate],0.914
11,COC(=O)CC(O)(CCCC(C)(C)O)C(=O)OC1C(OC)=CC23CCCN2CCc2cc4c(cc2C13)OCO4 (centres undefined) [Homoharringtonine],0.341
12,CC(C(=O)[O-])c1ccc(CC2CCCC2=O)cc1.[Na+] (centres undefined) [Loxoprofen Sodium],1.11
13,C=C1c2cccc(O)c2C(=O)C2=C(O)C3(O)C(=O)C(C(N)=O)=C(O)C(N(C)C)C3C(O)C12.Cl (centres undefined) [Methacycline HCl],0.829
14,CC1CCC2(C(=O)OC3OC(COC4OC(CO)C(OC5OC(C)C(O)C(O)C5O)C(O)C4O)C(O)C(O)C3O)CCC3(C)C(=CCC4C5(C)CC(O)C(O)C(C)(CO)C5CCC43C)C2C1C (centres undefined) [Asiaticoside],1.12
15,Nc1nc(F)nc2c1ncn2C1OC(CO)C(O)C1O (centres undefined) [Fludarabine],0.747
16,O=NN(CCCl)C(=O)NC1CCCCC1 [Lomustine],0.95
17,O=CC(O)C(O)C(O)C(O)COC1OC(CO)C(O)C(O)C1O (centres undefined) [Melibiose],1.25
18,O.S=c1nc[nH]c2nc[nH]c12 [6-Mercaptopurine (6-MP) Monohydrate],0.521
19,CC(C(=O)O)c1cccc(C(=O)c2ccccc2)c1 (centres undefined) [Ketoprofen],0.942
20,CNC1CCC(c2ccc(Cl)c(Cl)c2)c2ccccc21.Cl (centres undefined) [Sertraline HCl],1.02
21,CC1(C)OC2CC3C4CCC5=CC(=O)CCC5(C)C4(F)C(O)CC3(C)C2(C(=O)CCl)O1 (centres undefined) [Halcinonide],0.307
22,CC(=O)OC12COC1CC(O)C1(C)C(=O)C(O)C3=C(C)C(OC(=O)C(O)C(NC(=O)OC(C)(C)C)c4ccccc4)CC(O)(C(OC(=O)c4ccccc4)C21)C3(C)C (centres undefined) [Docetaxel],6.01
23,CCN(CC)Cc1cc(Nc2ccnc3cc(Cl)ccc23)ccc1O.Cl.Cl [Amodiaquine hydrochloride],1.43
24,Cc1c(N)c(=O)n(-c2ccccc2)n1C [4-Aminoantipyrine],0.798
25,Cn1cnc2c(F)c(Nc3ccc(Br)cc3F)c(C(=O)NOCCO)cc21,0.414
26,CC1(C)C2CCC1(C)C(O)C2 (centres undefined) [Borneol],1.17
27,CC1CC2C3CCC4=CC(=O)C=CC4(C)C3(Cl)C(O)CC2(C)C1(OC(=O)c1ccco1)C(=O)CCl (centres undefined) [Mometasone furoate],0.287
28,CCN(CC)CCCC(C)Nc1ccnc2cc(Cl)ccc12.O=P(O)(O)O.O=P(O)(O)O (centres undefined) [Chloroquine Phosphate],1.08
29,"COc1cc2c(cc1Cc1cccc(Cl)c1F)c(=O)c(C(=O)O)cn2C(CO)C(C)C (centres undefined) [Elvitegravir (GS-9137, JTK-303)]",1.69
